Measured values published in article PMC7737296.
No constants are given. Whether binding was seen depends on the method and setting. For some assays here: In cells and extracts the contact can be indirect. Some results given as binding are weak or reduced against the parent protein; the word gives no strength. For some assays here: Tags and fused reporters may be left off the sequences shown. Blank lines part the entries; values can stand above or below the binder they belong to.

Columns and labels:
[1] = biological target: T1, AMT1;3-Cub (Arabidopsis thaliana) (UniProt Q9SQH9); assay: two-hybrid; split-ubiquitin system in yeast; AMT-Cub-PLV as bait, NubG-CIPK as prey; growth on SD-Trp -Leu -His, X-gal staining, filter and quantitative beta-galactosidase assays
T1 sequence: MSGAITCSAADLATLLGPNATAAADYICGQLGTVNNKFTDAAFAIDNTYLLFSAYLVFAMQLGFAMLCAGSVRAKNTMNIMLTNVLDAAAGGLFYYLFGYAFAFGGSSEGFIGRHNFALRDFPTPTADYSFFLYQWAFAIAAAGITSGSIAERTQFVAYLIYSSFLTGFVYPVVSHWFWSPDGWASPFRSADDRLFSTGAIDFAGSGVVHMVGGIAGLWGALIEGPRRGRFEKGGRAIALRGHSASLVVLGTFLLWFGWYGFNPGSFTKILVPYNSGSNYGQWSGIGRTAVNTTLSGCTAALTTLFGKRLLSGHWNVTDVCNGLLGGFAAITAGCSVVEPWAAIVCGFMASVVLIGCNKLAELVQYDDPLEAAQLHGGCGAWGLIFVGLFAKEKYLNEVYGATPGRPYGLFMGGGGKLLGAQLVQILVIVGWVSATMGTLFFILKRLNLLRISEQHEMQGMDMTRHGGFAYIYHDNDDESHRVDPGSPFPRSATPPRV

[2] = biological target: T2, AMT1;2-Cub (Arabidopsis thaliana) (UniProt Q9ZPJ8); assay: as above
T2 sequence: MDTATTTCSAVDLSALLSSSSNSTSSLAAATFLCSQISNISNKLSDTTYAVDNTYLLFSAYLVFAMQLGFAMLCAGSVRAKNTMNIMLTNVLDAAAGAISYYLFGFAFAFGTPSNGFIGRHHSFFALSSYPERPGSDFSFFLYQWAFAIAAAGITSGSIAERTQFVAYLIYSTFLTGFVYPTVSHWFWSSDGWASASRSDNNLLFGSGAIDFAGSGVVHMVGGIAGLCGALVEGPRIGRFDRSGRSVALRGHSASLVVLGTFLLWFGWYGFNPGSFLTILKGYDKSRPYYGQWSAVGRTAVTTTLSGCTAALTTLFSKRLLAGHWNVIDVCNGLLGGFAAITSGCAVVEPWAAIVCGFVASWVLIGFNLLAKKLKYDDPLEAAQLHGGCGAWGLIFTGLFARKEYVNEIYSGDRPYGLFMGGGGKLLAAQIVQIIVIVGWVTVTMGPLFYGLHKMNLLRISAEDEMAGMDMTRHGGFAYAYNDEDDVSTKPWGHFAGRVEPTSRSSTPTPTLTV

[3] = biological target: T3, AMT1;1-Cub-PLV (Arabidopsis thaliana) (UniProt P54144); assay: as above
T3 sequence: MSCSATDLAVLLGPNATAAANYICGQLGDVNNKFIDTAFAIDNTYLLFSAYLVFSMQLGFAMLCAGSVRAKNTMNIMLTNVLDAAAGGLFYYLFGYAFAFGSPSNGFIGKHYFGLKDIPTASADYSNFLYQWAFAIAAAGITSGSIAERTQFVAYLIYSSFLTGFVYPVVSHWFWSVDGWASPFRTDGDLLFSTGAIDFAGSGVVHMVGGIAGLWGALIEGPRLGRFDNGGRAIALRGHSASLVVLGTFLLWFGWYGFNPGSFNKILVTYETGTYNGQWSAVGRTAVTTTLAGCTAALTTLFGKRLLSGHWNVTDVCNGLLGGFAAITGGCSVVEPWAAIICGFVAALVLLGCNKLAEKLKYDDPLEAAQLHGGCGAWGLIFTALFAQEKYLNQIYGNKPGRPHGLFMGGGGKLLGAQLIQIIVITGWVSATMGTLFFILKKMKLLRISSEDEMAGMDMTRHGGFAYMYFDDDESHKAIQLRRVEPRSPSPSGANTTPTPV

[4] = biological target: T4, nYFP-AMT1;1 (Arabidopsis thaliana) (UniProt P54144); assay: split reporter; split-fluorescent protein assay (nYFP + cCFP, reconstituted YFP fluorescence) in transiently transformed N. benthamiana leaves, confocal microscopy 36 to 48 h after infiltration
T4 sequence: T3 sequence

binding [1]: binds
binding [2]: binds
binding [3]: binds
B1: NubG-CIPK15 (enzyme, UniProt P92937 1-421)
chain: MEKKGSVLMLRYEVGKFLGQGTFAKVYHARHLKTGDSVAIKVIDKERILKVGMTEQIKREISAMRLLRHPNIVELHEVMATKSKIYFVMEHVKGGELFNKVSTGKLREDVARKYFQQLVRAVDFCHSRGVCHRDLKPENLLLDEHGNLKISDFGLSALSDSRRQDGLLHTTCGTPAYVAPEVISRNGYDGFKADVWSCGVILFVLLAGYLPFRDSNLMELYKKIGKAEVKFPNWLAPGAKRLLKRILDPNPNTRVSTEKIMKSSWFRKGLQEEVKESVEEETEVDAEAEGNASAEKEKKRCINLNAFEIISLSTGFDLSGLFEKGEEKEEMRFTSNREASEITEKLVEIGKDLKMKVRKKEHEWRVKMSAEATVVEAEVFEIAPSYHMVVLKKSGGDTAEYKRVMKESIRPALIDFVLAWH

binding [4]: binds
B2: CIPK15-cCFP (enzyme, UniProt P92937 1-421)
chain: B1 chain

binding [3]: no binding
B3: NubG-CIPK19 (enzyme, UniProt Q9FJ55 1-483)
chain: MADLLRKVKSIKKKQDQSNHQALILGKYEMGRLLGHGTFAKVYLARNAQSGESVAIKVIDKEKVLKSGLIAHIKREISILRRVRHPNIVQLFEVMATKSKIYFVMEYVKGGELFNKVAKGRLKEEMARKYFQQLISAVSFCHFRGVYHRDLKPENLLLDENGNLKVSDFGLSAVSDQIRQDGLFHTFCGTPAYVAPEVLARKGYDGAKVDIWSCGVILFVLMAGFLPFHDRNVMAMYKKIYRGDFRCPRWFPVEINRLLIRMLETKPERRFTMPDIMETSWFKKGFKHIKFYVEDDHQLCNVADDDEIESIESVSGRSSTVSEPEDFESFDGRRRGGSMPRPASLNAFDLISFSPGFDLSGLFEDDGEGSRFVSGAPVGQIISKLEEIARIVSFTVRKKDCKVSLEGSREGSMKGPLSIAAEIFELTPALVVVEVKKKGGDKMEYDEFCNKELKPKLQNLSSENGQRVSGSRSLPSFLLSDTD
